From PubChem BioAssay AID1466 (National Center for Advancing Translational Sciences (NCATS), 2008)
Screen size: about 200,000 compounds; about 10 (0.005%) were called active. This list was built around the results that the source calls inconclusive (neither active nor inactive); the mix of calls is not that of the screen. Calls follow the shape of the dose curve; as a rule, active = well fitted inhibition curve with a large enough effect; inconclusive = small, poorly fitted or top-dose-only effect, or effect the other way, or another doubt; inactive = no such curve, though single readings can be large or run the other way. Potencies of inconclusive entries are left out as doubtful fits.
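For activity change, negative = inhibition in this document: plate controls were uninhibited enzyme wells for no effect and no-enzyme background for full effect.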
Potency is read from the fitted curve at half-maximal effect; tags tell the direction and shape of the fitted curve.

These compounds were tested against Lysosomal alpha-glucosidase (Homo sapiens) (UniProt P10253) (assay: qHTS Assay for Inhibitors of Human alpha-Glucosidase as a Potential Chaperone Treatment of Pompe Disease). Conditions: purified human GAA, 4-MU-alpha-glucoside fluorescence; activity change, negative = inhibition: at 76.9 µM (top of the series) unless noted.
In short: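 Enzyme (4 nM final) mixed with compound (up to 77 uM), then 4-MU-alpha-D-pyranoside (400 uM final) added; 20 min at room temperature, pH 5.0. Reaction stopped at pH 10, fluorescence read, AC50 derived by Hill fit.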
For `O=C(CN1CCN(c2nc(-c3ccc(F)cc3)cs2)CC1)Nc1ccc2c(c1)OCO2`, the Potency was inconclusive [inhibitor, single point]. With `CSc1nc(C)nc(C2CC2)c1C#N` the Potency was “inactive”. `Cc1onc(-c2ccccc2)c1C(=O)Nc1ccc2c(C)cc(=O)oc2c1` was tested, and the Potency was inconclusive [activator, single point]. `COc1ccc(-n2cnnc2SCC(=O)NC2CCCc3ccccc32)cc1` (stereo not drawn) was tested, and the Potency was inconclusive [inhibitor, single point]. In the case of `CCOc1ccc(S(=O)(=O)Nc2cc(OC)ccc2OC)cc1`, the activity change, negative = inhibition was inconclusive: -15.3% [inhibitor]. `COC(=O)c1[nH]c2ccc(Cl)cc2c1NC(=O)Oc1ccccc1` was tested, and the Potency was “inactive”. In the case of `Cc1ccc(NC(=O)C2CCN(S(C)(=O)=O)CC2)cc1`, the Potency was “inactive”. In the case of `CCOC(=O)c1c2ccc(OCC(=O)N/N=C/c3ccc(Cl)cc3)cc2n2ccccc12`, the Potency was inconclusive [inhibitor, single point]. In the case of `CCOc1ccc(N2C(=O)/C(=C/c3cc(OC)c(OC)c(OC)c3)N(CC(=O)OC)C2=S)cc1`, the Potency was inconclusive [inhibitor, partial curve]. `N#C/C(=C/c1cn(-c2ccccc2)nc1-c1cccc(OCc2ccc(F)cc2)c1)C(=O)NCCCn1ccnc1` was tested, and the Potency was “inactive”. In the case of `O=C(Nc1ccc(F)cc1)C(c1ccccc1)N1CCN(S(=O)(=O)c2ccccc2)CC1` (stereo not drawn), the Potency was inconclusive [inhibitor, full curve]. In the case of `Cc1cccn2c(=O)c3cc(C(N)=S)c(=N)n(CCCOC(C)C)c3nc12`, the Potency was inconclusive [activator, partial curve]. With `CC1(C)CC(=O)c2cn3ncnc3nc2C1` the Potency was inconclusive [inhibitor, single point]. `O=C(CCCn1c(=O)oc2ccccc21)N1CCN(c2ccc(F)cc2)CC1` was tested, and the Potency was inconclusive [inhibitor, single point]. With `S=c1[nH]nc(-c2ccccn2)n1/N=C/c1cccc(Cl)c1` the Potency was inconclusive [inhibitor, single point]. With `COC(=O)c1ccc(CN2CCC(CO)(Cc3ccccc3Cl)CC2)cc1` the activity change, negative = inhibition was inconclusive: 19.7% [activator]. For `Nc1c(Cl)cnc(C(Cl)(Cl)Cl)c1Cl`, the activity change, negative = inhibition was inconclusive: -17.3% [inhibitor]. For `COC(=O)c1c(-c2ccccc2)csc1NC(=O)CSc1ncnc2sc(C)c(C)c12`, the Potency was inconclusive [inhibitor, full curve, poor fit]. For `O=C(Cn1c(=O)sc2ccccc21)Nc1ccc(S(=O)(=O)N2CCCCC2)cc1`, the Potency was inconclusive [inhibitor, full curve, poor fit]. In the case of `Cc1ccc(NC(=O)Nc2ccccc2C#N)c(Cl)c1`, the Potency was inconclusive [activator, partial curve]. In the case of `O=C(COc1ncnc2ccc(Br)cc12)N1CCOCC1`, the activity change, negative = inhibition was inconclusive: -15.1% [inhibitor]. For `CCc1ccc(-c2cc(C(=O)N3N=C(C(F)F)CC3(O)C(F)F)c3ccccc3n2)cc1` (stereo not drawn), the activity change, negative = inhibition was inconclusive: -15.2% [inhibitor]. For `COC(CC(=O)NNC(=S)Nc1ccc(Cl)cc1)OC`, the Potency was inconclusive [inhibitor, single point]. `Cc1cc2cc3c(cc2nc1SCC(=O)N1CCN(C(=O)c2ccco2)CC1)OCO3` was tested, and the Potency was inconclusive [inhibitor, single point]. `CCn1ncc(/C=C/C(=O)c2ccccc2)c1C` was tested, and the Potency was “inactive”. `CCN1C(=O)c2cccc3c(Cl)ccc(c23)C1=O` was tested, and the activity change, negative = inhibition was inconclusive: 19.5% [activator]. `COc1ccccc1N1CCN(S(=O)(=O)c2ccc3nc(-c4ccccc4)[nH]c3c2)CC1` was tested, and the Potency was inconclusive [inhibitor, partial curve]. For `COc1ccc(/C=N/N2CCN(c3ccccc3OC)CC2)cc1OC`, the Potency was inconclusive [inhibitor, partial curve]. `COC(=O)Cn1cnc2sc(C)c(S(=O)(=O)N3CCN(c4ccccc4OC)CC3)c2c1=O` was tested, and the Potency was inconclusive [inhibitor, single point]. For `COc1cccc(Cn2cccc(NC(=O)Nc3ccccc3C)c2=O)c1`, the activity change, negative = inhibition was inconclusive: 24.9% [activator]. `Cc1c(C(=O)Nc2ccccc2)sc2nc3n(c(=O)c12)CCCCC3` was tested, and the Potency was “inactive”. With `Cc1ccc2oc(=O)c3cnn(CC(=O)N4CCN(c5ccccc5)CC4)c3c2c1` the Potency was inconclusive [inhibitor, partial curve, poor fit]. With `CC(Sc1nc(NCc2ccccc2)nc(N(C)C)n1)C(=O)Nc1ccccc1` (stereo not drawn) the Potency was “inactive”. For `CCOC(=O)c1c(C)c(C(=O)NCc2ccccn2)c(C)n1C`, the Potency was inconclusive [inhibitor, partial curve, poor fit]. For `O=S(=O)(c1ccccc1)N1CCN(CC2CC3C=CC2C3)CC1` (stereo not drawn), the activity change, negative = inhibition was inconclusive: 17.1% [activator]. `O=C(/C=C/NCC(=O)c1ccccc1)c1ccc(Br)cc1` was tested, and the Potency was inconclusive [inhibitor, full curve, poor fit]. `O=C(C1CCN(CCCc2ccccc2)CC1)N(CCc1ccccc1)Cc1ccccc1` was tested, and the Potency was inconclusive [inhibitor, partial curve]. In the case of `Cc1ccc(-n2c(O)c(C=Nc3cc(C)on3)c3ccccc3c2=O)c(C)c1`, the Potency was inconclusive [inhibitor, full curve, poor fit]. With `CCCN1C(=O)c2ccccc2NC1c1ccc(C)cc1` (stereo not drawn) the Potency was inconclusive [activator, partial curve]. `COc1ccc(OCC(=O)NNC(=O)c2cccc(C)c2)cc1` was tested, and the Potency was inconclusive [inhibitor, single point]. `O=C(NCCC1=CCCCC1)c1ccc2c(=O)n3c(nc2c1)CCCCC3` was tested, and the Potency was inconclusive [inhibitor, full curve, poor fit]. `Cc1ccccc1-n1c(SCc2cccc(F)c2)nc2[nH]ncc2c1=O` was tested, and the activity change, negative = inhibition was inconclusive: -16.7% [inhibitor]. In the case of `O=C1C2=C(NC(=S)NC2c2ccc(Cl)cc2)NC(c2ccc(Cl)cc2)N1c1ccc(Cl)cc1` (stereo not drawn), the Potency was inconclusive [inhibitor, full curve].
